According to publication PMC4336329 (PLoS ONE, 2015):
The whole screen tested about 310,000 compounds, of which about 14,000 (4.5%) showed an effect of 50% or more. Effects have a minus sign here. The list shows a part of the results.

molecular target: human ether-à-go-go-related gene (hERG) potassium channel (human, UniProt Q12809); assay: primary screen, population patch clamp on CHO cells stably expressing hERG
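Note: peak tail current of the secondary pulse compared with the same well before compound.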

human ether-à-go-go-related gene (hERG) potassium channel, sequence (Q12809 whole entry, looked up): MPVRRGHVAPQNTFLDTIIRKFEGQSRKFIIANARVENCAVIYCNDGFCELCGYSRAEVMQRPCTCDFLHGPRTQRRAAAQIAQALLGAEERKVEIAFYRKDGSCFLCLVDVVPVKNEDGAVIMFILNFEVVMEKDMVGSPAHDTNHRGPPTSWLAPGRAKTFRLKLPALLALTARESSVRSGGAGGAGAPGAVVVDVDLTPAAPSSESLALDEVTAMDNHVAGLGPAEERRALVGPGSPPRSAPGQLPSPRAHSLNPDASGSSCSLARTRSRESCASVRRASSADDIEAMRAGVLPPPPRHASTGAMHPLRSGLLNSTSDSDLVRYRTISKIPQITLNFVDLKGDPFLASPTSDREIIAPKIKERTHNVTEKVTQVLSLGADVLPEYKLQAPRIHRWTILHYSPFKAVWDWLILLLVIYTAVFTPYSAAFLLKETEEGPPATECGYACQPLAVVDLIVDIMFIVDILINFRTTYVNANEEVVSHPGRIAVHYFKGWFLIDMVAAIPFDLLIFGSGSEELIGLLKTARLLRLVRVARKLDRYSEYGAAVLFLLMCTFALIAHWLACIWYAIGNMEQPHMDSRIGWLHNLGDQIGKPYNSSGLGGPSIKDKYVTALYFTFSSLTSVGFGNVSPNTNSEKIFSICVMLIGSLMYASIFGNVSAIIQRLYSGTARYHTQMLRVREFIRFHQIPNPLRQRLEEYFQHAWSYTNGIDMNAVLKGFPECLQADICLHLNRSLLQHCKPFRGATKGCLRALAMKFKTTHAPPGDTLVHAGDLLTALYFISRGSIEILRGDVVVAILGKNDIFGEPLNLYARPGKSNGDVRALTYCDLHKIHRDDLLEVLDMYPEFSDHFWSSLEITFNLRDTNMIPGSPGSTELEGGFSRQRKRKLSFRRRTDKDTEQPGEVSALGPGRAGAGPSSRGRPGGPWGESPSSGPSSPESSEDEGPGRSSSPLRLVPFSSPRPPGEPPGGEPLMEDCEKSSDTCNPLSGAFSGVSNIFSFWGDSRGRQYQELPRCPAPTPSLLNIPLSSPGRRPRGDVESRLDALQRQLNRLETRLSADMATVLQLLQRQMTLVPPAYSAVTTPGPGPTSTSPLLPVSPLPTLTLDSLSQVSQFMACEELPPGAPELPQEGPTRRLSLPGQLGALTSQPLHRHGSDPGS

Point of comparison: `CCn1ccnc1CN(C)Cc1cn(-c2cc(C)ccc2C)nc1-c1ccccc1`, “hERG current change (%, negative = inhibition) at 10uM” value -51.7%. Against it:
- COc1ccc2oc(-c3ccco3)cc(=O)c2c1 — higher, -2.83%
- CCOC(=O)C1CCCN(C(=O)c2cccc(S(=O)(=O)N(Cc3ccccc3)c3ccccc3OC)c2)C1 (centres unmarked) — higher, -33.6%
- CCOC(=O)C(=O)Nc1ccc([N+](=O)[O-])cc1OC — higher, -2.52%
- COc1ccc(C(=O)Nc2ncc3c(n2)CC(c2ccco2)CC3=O)cc1 (centres unmarked) — higher, -16.3%
- O=C(/C=C/c1ccccc1Cl)Nn1cnc2ccccc2c1=O — higher, 5.09%
- CN1CCN(C(=S)NC(=O)c2ccco2)CC1 — higher, 15.2%
- COc1ccc(N(CC(=O)N2CCN(c3ccccc3)CC2)S(=O)(=O)c2ccc(C)cc2)cc1 — higher, 5.26%
- CC[C@H]1c2[nH]c3ccccc3c2C[C@@H]2C(=O)N(c3ccc(F)cc3)C(=O)N21 — higher, 16.6%
- CC(C)n1c(=O)[nH]c2cc(C(=O)Nc3ccccc3)ccc21 — higher, 4.59%
- O=C(CCCOc1ccc(Cl)cc1)NCC1CCCO1 (centres unmarked) — higher, 6.4%
- COc1ccc(C(=O)N/N=C2/SCC(=O)N2Cc2ccc3c(c2)OCO3)cc1OC — higher, -3.17%
- CCCC(=O)Nc1nnc(SCC(=O)N2CCCCC2)s1 — higher, 7.4%
- COc1ccc(NC(=O)c2ccc(COc3ccccc3OC)o2)cc1OC — higher, 2.82%
- COC(=O)c1ccccc1NC(=O)CSc1[nH]c(=O)cc(C)c1C#N — higher, 18.2%
- CC(C)(C)c1ccc(OCc2nnc(SCC(N)=O)n2N)cc1 — higher, 3.01%
- Cc1nnc2sc(-c3cccc(NC(=O)c4cccnc4)c3)nn12 — higher, -31.9%
- O=C1NC2(CCCC2)C(=O)N1Cc1cc(=O)n2ccsc2n1 — higher, 8.23%
- O=C(OC[C@H]1O[C@@H](OC(=O)c2cc(O)c(O)c(OC(=O)c3cc(O)c(O)c(O)c3)c2)[C@H](OC(=O)c2cc(O)c(O)c(OC(=O)c3cc(O)c(O)c(O)c3)c2)[C@@H](OC(=O)c2cc(O)c(O)c(OC(=O)c3cc(O)c(O)c(O)c3)c2)[C@@H]1OC(=O)c1cc(O)c(O)c(OC(=O)c2cc(O)c(O)c(O)c2)c1)c1cc(O)c(O)c(OC(=O)c2cc(O)c(O)c(O)c2)c1 — higher, 19.3%
- COc1ccc(NC(=O)CN(C)C(=O)c2cccnc2Sc2ccc(C)c(C)c2)cc1 — higher, -2.6%
- COc1ccc(NC(=O)CSc2nnc(-c3cnccn3)n2C)cc1OC — higher, 16.2%
- O=C(CN(Cc1cccs1)C(=O)CN1C(=O)COc2ccccc21)NCc1ccco1 — higher, -6.28%
- O=C(O)C1C2C=CC3(CN(c4cccc(C(F)(F)F)c4)C(=O)C13)O2 (centres unmarked) — higher, 17.3%
- O=C(Nc1cccnc1)Nc1cc(Cl)cc(Cl)c1 — higher, 6.81%
- COc1cccc(CNC(=O)C(=O)N2CCC3(CC2)OCCN3S(=O)(=O)c2ccc(C)cc2)c1 — lower, -57%
- Cc1ccc(N(C(=O)c2ccc(CN3CCOCC3)o2)C(C(=O)NCCC(C)C)c2cccs2)c(C)c1 (centres unmarked) — higher, 7.06%
- Cc1sc2ncnc(N3CCC(C(=O)Nc4ccc(Cl)c(Cl)c4)CC3)c2c1C — higher, -7.26%
- CC(=O)Nc1nc(N2C(=O)c3ccccc3C2=O)n(-c2ccccc2)n1 — higher, 18.7%
- CC(=O)NNC(=O)c1nc(-c2ccccc2)c(C)o1 — higher, 13.7%
- CC1(C)CN(c2ccc(N3CC(C)(C)C3=O)cc2)C1=O — higher, 4.66%
- O=C(NCc1csc(-c2cccs2)n1)c1cccc(Cl)c1 — higher, -28.2%
- CC(=O)Nc1ccccc1OCCOc1ccc(Br)cc1 — higher, -1.67%
- CCCN1CCN(C(=O)Cn2nc(C)n3c(cc4sccc43)c2=O)CC1 — higher, -23.9%
- CN(CC(=O)Nc1c(Cl)cccc1Cl)C(=O)c1cc(-c2cccs2)nn1-c1ccccc1 — higher, -17.1%
- O=C(CSc1nnc(CNC(=O)c2ccc(F)cc2)o1)NCc1ccccc1 — higher, -24.7%
- CCCc1cc(=O)n2[nH]c(NC(=O)c3ccco3)nc2n1 — higher, 18.2%
- CC(=O)N1CCc2cc(S(=O)(=O)CCC(=O)N3CCc4ccccc4C3)ccc21 — higher, 6.18%
- CCCCNC(=O)CNC(=S)N(Cc1ccccc1)Cc1cccnc1 — higher, -23%
- NNc1ccc(Cl)nn1 — higher, 9.66%
- Br.N=C(N)SCCN — higher, 17.8%
- COC(=O)c1c(NC(=O)c2ccc(Br)s2)sc2c1CCC2 — higher, -8.61%
- CCn1ccnc1CN(C)Cc1cn(C)nc1-c1ccccc1F — higher, 13.2%
- COc1ccc(NC(=O)CS(=O)(=O)c2ccc(Br)cc2)cc1 — higher, 23.1%
- CN1CCN(NC(=S)Nc2ccc(Oc3ccccc3)cc2)CC1 — higher, 1.33%
- CCS(=O)(=O)c1ccc2oc(SCC(=O)NCCc3ccc(OC)cc3)nc2c1 — higher, -16.8%
- COc1ccc(C2c3c(ccc4ccccc34)Oc3ncn4nc(CO/N=C/c5ccccc5)nc4c32)cc1 (centres unmarked) — higher, 5.96%
- Cc1ccc(Cc2cncc(O)c2)cc1S(=O)(=O)O — higher, 4%
- O=C(O)c1cn(Cc2ccccn2)c(=O)c2ccccc12 — higher, 9.76%
- CCOC(=O)CCC(=O)N1CCOCCOCCOCC1 — higher, -6.15%
- Cc1ccc(OCCSc2nnc(NC(=O)c3ccco3)s2)cc1 — higher, -1.66%
- O=C(NCC1CCCO1)c1ccc2c(c1)S(=O)(=O)c1ccccc1C2=O (centres unmarked) — higher, -13.1%
- CN1c2ccc([N+](=O)[O-])cc2CC2(C(=O)NC(=O)N(c3ccc(Br)cc3)C2=O)C1c1ccccc1 (centres unmarked) — higher, 6.47%
- CCN1C(=O)/C(=C2\SC(N3CCCCC3)=NC2=O)c2ccccc21 — higher, -0.354%
- Cc1ccc2nc(NC(=O)c3ccc(Cl)s3)sc2c1 — higher, 1.34%
- Cc1cc(N/C=C\c2nnnn2-c2ccccc2)no1 — higher, 11.5%
- CN1CCN(NC(=O)c2cccc(F)c2)CC1 — higher, -0.119%
- COC(OC)c1ccnc(-c2ccc(OC(=O)c3cccs3)cc2)n1 — higher, -18.1%
- COc1ccc2[nH]c(C)c(CN3CCCCC3)c(=O)c2c1 — higher, -11%
- CSc1ccc(/C=C/C(=O)OCC(=O)N2CCN(S(=O)(=O)c3ccc(C)cc3C)CC2)cc1 — higher, 6.78%
- O=C(NC1CCCC1)c1ccc(S(=O)(=O)N2CCCC2)cc1 — higher, -0.792%
- Cc1cc(C)c(NC(=O)CS(=O)CC(=O)Nc2ccc(N3CCOCC3)cc2)c(C)c1 (centres unmarked) — higher, 10.6%
- CC(=O)N1N=C(c2cccc([N+](=O)[O-])c2)OC1c1ccc(Cl)cc1Cl (centres unmarked) — higher, 8.14%
- O=C(NC1CC1)c1ccc2c(c1)N(Cc1ccccc1)CCS2 — higher, 2.8%
- NC(=O)NC(=O)Nc1ccccc1Cl — higher, 16.3%
- CC(C)(C)S(=O)(=O)/C(C#N)=N/Nc1ccc(Cl)cc1 — higher, 41.8%
- Cn1c(Cc2cccs2)nnc1SCC(=O)Nc1ccccc1 — higher, 11.5%
- CC(C)(C)c1ccc(NC(=O)CCNC(=O)c2ccco2)cc1 — higher, 6.91%
- CN1CCN(C(=O)c2ccccc2N(Cc2ccccc2)S(=O)(=O)c2ccccc2)CC1 — higher, -8.4%
- CC(C)Oc1ccc(Cc2n[nH]c(=S)n2Cc2ccccc2)cc1Cl — higher, 8.52%
- COC(=O)C1CCN(c2nc3ccccc3nc2C(C#N)C(=O)OCC(C)C)CC1 (centres unmarked) — higher, 7.76%
- O=C(COc1ccccc1Cl)Nc1cc(Cl)ccc1Oc1ccccc1 — higher, 11.3%
- CC(OC(=O)/C=C/c1ccco1)C(=O)Nc1cccc([N+](=O)[O-])c1 (centres unmarked) — higher, 6.57%
- O=C(NCCCO)c1cc([N+](=O)[O-])cc2c1C=Cc1ccccc1O2 — higher, -33.4%
- CCN(CC(=O)Nc1cccc(F)c1)CC(=O)Nc1ccccc1OC — higher, -10%
- CCOC(=O)N1CCC(NC(=O)c2cc(S(=O)(=O)N3CCCC3)cn2C)CC1 — higher, 1.74%
- CCN(CC(=O)Nc1c(F)cccc1F)C(=O)c1ccc(NC(=O)CC2SC(N3CCCC3)=NC2=O)cc1 (centres unmarked) — higher, 3.17%
- CCS(=O)(=O)NCCc1csc(-c2ccccc2)n1 — higher, 9.98%
- O=S(=O)(c1ccc(OCC(O)CN2CCN(c3ccc(F)cc3)CC2)cc1)N1CCOCC1 (centres unmarked) — higher, -18.2%
- Cc1cc(NC(=O)c2ccc(Cl)cc2)c(C)cc1O — higher, 1.37%
- O=[N+]([O-])c1nn(-c2ccc3c(c2)OCCO3)n(O)c1=NCCC1=CCCCC1 — higher, -0.0142%
- CC(C)(C)N1CCC1C(N)=O (centres unmarked) — higher, 1.86%
- COc1ccc(C(=O)COC(=O)C2CC3CCCC(C2)C3=O)cc1Br (centres unmarked) — higher, 3.38%
- CCCNC(=S)N1CCN(Cc2ccc3c(c2)OCO3)CC1.O=C(O)C(=O)O — higher, 8.24%
- CC1CCN(S(=O)(=O)c2ccc(NC(=O)c3cccs3)cc2)CC1 — higher, -5.54%
- O=C(O)c1cccc(Nc2ncnc3ccccc23)c1 — higher, 17.3%
- COC(=O)c1ccc(Nc2cc(C)nc3ccccc23)cc1.Cl — higher, -37.3%
